# Screen size: about 310,000 compounds; about 14,000 (4.5%) showed an effect of 50% or more. The effect is printed as a negative number. Some of the results follow.
# Target: human ether-à-go-go-related gene (hERG) potassium channel (human, UniProt Q12809)
# Experiment: primary screen, population patch clamp on CHO cells stably expressing hERG
# 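Further: peak tail current of the secondary pulse compared with the same well before compound.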
# Sequence of human ether-à-go-go-related gene (hERG) potassium channel (Q12809 whole entry, looked up): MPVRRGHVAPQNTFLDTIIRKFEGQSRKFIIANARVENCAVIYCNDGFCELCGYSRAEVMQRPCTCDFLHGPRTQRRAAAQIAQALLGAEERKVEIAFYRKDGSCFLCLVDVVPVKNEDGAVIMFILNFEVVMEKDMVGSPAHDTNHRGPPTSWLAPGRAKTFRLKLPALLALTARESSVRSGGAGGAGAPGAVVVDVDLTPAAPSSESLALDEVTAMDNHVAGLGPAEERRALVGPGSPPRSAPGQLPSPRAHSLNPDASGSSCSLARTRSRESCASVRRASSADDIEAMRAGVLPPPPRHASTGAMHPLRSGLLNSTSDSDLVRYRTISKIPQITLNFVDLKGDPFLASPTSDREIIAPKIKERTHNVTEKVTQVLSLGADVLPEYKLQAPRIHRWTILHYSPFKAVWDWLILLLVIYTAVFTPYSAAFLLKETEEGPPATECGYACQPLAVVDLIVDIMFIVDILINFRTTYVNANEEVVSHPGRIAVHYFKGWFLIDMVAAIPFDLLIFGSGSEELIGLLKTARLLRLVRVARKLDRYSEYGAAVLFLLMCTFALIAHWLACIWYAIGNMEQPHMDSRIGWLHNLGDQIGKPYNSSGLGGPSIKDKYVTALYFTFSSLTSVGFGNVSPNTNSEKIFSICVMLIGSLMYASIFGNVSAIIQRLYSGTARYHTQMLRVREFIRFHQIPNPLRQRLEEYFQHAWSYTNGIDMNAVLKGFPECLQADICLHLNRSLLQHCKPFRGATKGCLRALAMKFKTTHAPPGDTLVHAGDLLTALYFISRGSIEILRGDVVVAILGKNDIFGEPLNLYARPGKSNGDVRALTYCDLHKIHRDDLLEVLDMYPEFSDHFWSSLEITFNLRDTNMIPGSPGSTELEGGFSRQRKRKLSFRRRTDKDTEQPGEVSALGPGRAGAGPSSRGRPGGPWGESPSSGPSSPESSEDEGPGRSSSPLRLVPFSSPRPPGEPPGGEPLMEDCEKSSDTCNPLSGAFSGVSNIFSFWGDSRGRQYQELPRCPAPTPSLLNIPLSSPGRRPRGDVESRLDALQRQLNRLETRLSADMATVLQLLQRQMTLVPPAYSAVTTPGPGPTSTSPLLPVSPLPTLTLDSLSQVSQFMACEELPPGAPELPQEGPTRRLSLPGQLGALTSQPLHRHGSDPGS
row,Compound,"hERG current change (%, negative = inhibition) at 10uM"
1,Cc1nc(N2CCN(C)CC2)c2c(C)c(C(=O)Nc3ccc(F)cc3)sc2n1,-47.9%
2,O=c1cc(N2CCN(c3ccccc3F)CC2)[nH]c(=O)n1-c1ccc(Br)cc1,-16.7%
3,O=C(CCCOc1ccccc1)N1CCN(S(=O)(=O)c2ccc(Cl)cc2)CC1,20.9%
4,COc1ccc(C(=O)Nc2ccc(N3CCN(C(=O)c4cccs4)CC3)cc2)cc1Br,-47.2%
5,Cc1ccccc1NC(=S)NCc1ccccc1,-7.65%
6,COc1cccc(NC(=O)Nc2ccccc2SC)c1,-3.85%
7,COc1cc(OC)c(CN2CCC(Cc3ccccc3)CC2)cc1Br,-70.9%
8,CN=C1c2c(-c3ccccc3)c3cc(OC)ccc3n2CCN1C.Cl,-62.6%
9,Cc1csc(-c2cnn(-c3ccccc3)c2NC(=O)c2cccc(F)c2)n1,-1.49%
10,O=C(NCc1ccccc1Cl)C1CCN(S(=O)(=O)c2ccc(F)cc2)CC1,-45.6%
11,Cc1cccc2nc(CSCc3ccco3)cn12,-2.01%
12,Cc1ccc(NC(=O)CCn2c(=O)oc3ccccc32)cc1,-3.19%
13,CCc1c(O)nc(SCC(=O)Nc2ccccc2OC)n(-c2ccccc2C)c1=O,-6.05%
14,O=C(CN(C(=O)Cn1nnc(-c2ccccc2F)n1)c1cccc2c1CCCC2)NCc1ccccc1,9.51%
15,COc1cc(C)c(Br)cc1S(=O)(=O)NCc1ccccc1,12.9%
16,CN1CCN(CCCNC(=O)c2ccc3c(c2)N(Cc2ccccc2)CCS3)CC1,-23.6%
17,COc1ccc(N2CC(C(=O)N/N=C/c3ccccc3)CC2=O)cc1 (centres unmarked),-33.1%
18,COc1cccc(CNC(=O)CSc2nc3ccc(C)cc3[nH]2)c1,6.22%
19,Cc1ccc(OCCC(=O)OCC(=O)NC(=O)NC2CCCCC2)cc1,14.9%
20,CCOc1ccccc1N1CCN(S(=O)(=O)c2ccc(F)c(F)c2)CC1,-20.8%
21,Cc1ccc(C(=O)N2CCN(c3cc4c(cc3[N+](=O)[O-])n(C)c(=O)n4C)CC2)cc1,-66.6%
22,COc1ccc(/C=C2\N=C3CCCCCN3C2=O)cc1OC,11%

row,Compound,"hERG current change (%, negative = inhibition) at 10uM"
1,O=C1c2cccnc2C(=O)N1Cc1ccc(F)cc1S(=O)(=O)NCc1ccco1,-27.1%
2,Cc1ccc(C(=O)c2cc([N+](=O)[O-])ccc2N2CCCCC2)c(C)c1,5.96%
3,CCC(C)NC(=S)Nc1ccc2nc(N3CCOCC3)cc(C)c2c1 (centres unmarked),5.86%
4,O=[N+]([O-])c1ccc(S(=O)(=O)Nc2ccc(-c3ccc(N4CCCC4)nn3)cc2)cc1,-8.67%
5,O=C(Cn1cnc2ccccc2c1=O)Nc1ccc(S(=O)(=O)N2CCOCC2)cc1,16.2%
6,COc1ccccc1NC(=O)CS(=O)(=O)c1cccc2nsnc12,0.279%
7,O=C(Cn1cc(C(=O)C2CC2)c2ccccc21)Nc1ccc(F)cc1,-20.5%
8,CCCCn1c(-c2ccccc2)nc2c(=O)n(C)c(=O)[nH]c21,18.3%
9,Nc1cc(N)nc(SCC(=O)NCc2ccco2)n1,9.13%
10,CC(=O)Nc1cc(NC(C)=O)cc(C(=O)OCC(=O)c2ccc3c(c2)OCO3)c1,7.16%
11,CS(=O)(=O)N(CC(=O)NN=C1CCCCCC1)c1ccc(Oc2ccccc2)cc1,13.7%
12,CCOC(=O)c1cc(-c2ccc(N3CCOCC3)cc2)nn1-c1ccccc1,-48.9%
13,O=C(Nc1ccc(-n2cccc2)cc1)C1CC1,11.8%
14,CCOC(=O)N1CCC(NS(=O)(=O)c2ccc(NC(C)=O)c(Cl)c2)CC1,20.2%
15,Cc1nn(Cc2ccc(F)cc2)c(C)c1NC(=O)CCCn1nc([N+](=O)[O-])cc1C,-1.82%
16,N#Cc1ccc(OCC(O)CN2CCN(CC(O)COc3ccc(C#N)cc3)CC2)cc1 (centres unmarked),-86.1%
17,CCCS(=O)(=O)N1CCN=C1SCc1cccc2ccccc12,0.766%
18,O=C(CC1SC(N2CCCCC2)=NC1=O)Nc1cccc(C(=O)O)c1 (centres unmarked),8.24%
19,CCCCOc1ccc(C(=O)N/C(=C\c2cccc([N+](=O)[O-])c2)C(=O)OC(C)C)cc1,-9.93%
20,O=C(c1ccc(S(=O)(=O)N2CCOCC2)cc1)N1CCCc2ccccc21,-7.14%
21,O=C(CNC(=O)c1cccs1)OCC(=O)c1ccc(Br)cc1,5.62%
22,Cc1ccc(-n2nc3c(c2NC(=O)c2ccco2)CS(=O)C3)cc1 (centres unmarked),-8.69%

row,Compound,"hERG current change (%, negative = inhibition) at 10uM"
1,N#Cc1c(Cl)nsc1NCCN1CCOCC1,15.4%
2,Cc1cc(C)c(S(=O)(=O)NCC(CCC(=O)O)C(F)(F)F)c(C)c1 (centres unmarked),3.41%
3,C(=N\c1nccs1)/c1cccnc1,0.336%
4,CC1(C)NC(=O)N(CC(O)CN2C(=O)NC(C)(C)C2=O)C1=O,17.2%
5,COc1ccc(-n2cnc3c(sc4nccc(N(C)C)c43)c2=O)cc1,-13.8%
6,O=C(NNC(=O)c1ccncc1)c1ccccc1,18.8%
7,CN(Cc1ccccc1)S(=O)(=O)c1csc(C(N)=O)c1,-17.8%
8,O=C(NC1CCN(Cc2ccccc2)CC1)c1ccc2c(c1)OCCCO2,-37.1%
9,Cc1cc(C)c(NC(=O)CNC(=O)COC(=O)/C=C/c2cccs2)c(C)c1,0.852%
10,CC(C)C[C@H](NC(=O)c1nc[nH]c1C(=O)NCC(=O)OC(C)(C)C)C(=O)OC(C)(C)C,-0.984%
11,N=C1C(c2nc3ccccc3s2)=C(O)CN1Cc1ccccc1,-8.09%
12,NC(=O)NC(=O)C(Nc1ccc(N2CCCCC2)cc1)c1ccccc1 (centres unmarked),16.2%
13,Cc1cccn2c(=O)c(C=O)c(N3CCN(c4ccccc4)CC3)nc12,-55.4%
14,C=CCNC(=O)C1CCN(C(=O)c2ccc(-c3ccccc3)cc2)CC1,-24.8%
15,CC(C)CCN1CCN(Cc2cnc(-c3ccccc3)s2)CC1CCO (centres unmarked),-56.6%
16,CN(CCC#N)S(=O)(=O)c1ccc2c(c1)c(=O)n(C)c(=O)n2C,0.68%
17,COc1cccc(C2C(C(=O)Nc3ccccc3)=C(C)N=c3s/c(=C/c4ccc(OCC(=O)O)cc4)c(=O)n32)c1 (centres unmarked),-18.4%
18,CC(CN1CCC(n2nccc2NC(=O)CCCc2ccccc2)CC1)c1ccccc1 (centres unmarked),-51.9%
19,CN(C)c1ccc(CNCCC(Cc2ccccc2)c2ccco2)cc1 (centres unmarked),-52.3%
20,Cc1nn(S(=O)(=O)c2ccccc2)c(C)c1S(=O)(=O)N1CCOCC1,20.1%
21,COc1ccc(NC(=O)CN(C)C(=O)Cc2ccc(S(=O)(=O)N3CCOCC3)s2)cc1,8.92%
22,CCc1ccc(N2CCN(S(=O)(=O)CC34CCC(CC3=O)C4(C)C)CC2)cc1 (centres unmarked),16.2%

row,Compound,"hERG current change (%, negative = inhibition) at 10uM"
1,COc1cccc(CN2CCNC(=O)C2CC(=O)N(C)CC2CCOCC2)c1OC (centres unmarked),-0.0809%
2,Cc1ccc(-c2cc[n+](Cc3ccccc3)cc2)cc1.[Cl-],-5.47%
3,COc1cc(-c2nc3cnccn3c2Nc2ccc(C(C)C)cc2)ccc1O,25%
4,O=C(CN1CC=C(c2ccccc2)CC1)NC(=O)NCc1ccccc1,3.33%
5,O=S(=O)(c1ccc(Br)s1)n1cccn1,-6.66%
6,COc1ccccc1CNC(=O)c1nn(-c2ccc(C)cc2)c(=O)c2c1c1ccccc1n2C,-12.5%
7,CC1Cc2ccccc2N1C(=O)CSc1ccccc1 (centres unmarked),-5.94%
8,O=C(NCc1cccc(F)c1)c1cccc(OC2CCN(C(=O)C3CC3)CC2)c1,-23.2%
9,O=C(O)c1cccnc1SC1CC(=O)N(c2ccccc2)C1=O (centres unmarked),32.4%
10,Cc1c(NC(=O)CCC2CCCCC2)cc(C(=O)N2CCOCC2)cc1[N+](=O)[O-],-10.2%
11,CCC(C)C(=O)Nc1nc(C)c(-c2csc(Nc3ccccc3OC)n2)s1 (centres unmarked),2.7%
12,c1cnc(NC2CCCCCC2)nc1,0.195%
13,Cc1[nH]c2ccccc2c1C(=O)C(=O)N1CCN(c2ccccc2)CC1,-14%
14,COc1ccc(OC)c(N(CC(=O)N2CCC(C)CC2)S(=O)(=O)c2ccc(OC)c(OC)c2)c1,-0.525%
15,CN(C)C(CNC(=O)CCc1nc2cc(Cl)ccc2n(Cc2ccccc2)c1=O)c1ccccc1 (centres unmarked),-81.1%
16,CCN(CC(=O)NCc1cccs1)C(=O)c1cccc(S(=O)(=O)NCc2ccccc2)c1,-48.7%
17,Nc1ncc2c(n1)-c1ccccc1CC2,8.55%
18,COc1ccccc1NS(=O)(=O)c1ccc(OC)c(OC)c1,-2.77%
19,CCOc1ccc(-c2nc(CN(Cc3ccccc3)C[C@@H]3CCC(=O)N3)c(C)o2)cc1,-22.2%
20,CCC1CCCCN1CCCNC(=O)c1ccc2c(c1)N(Cc1ccc(F)cc1)C(=O)c1ccccc1S2=O (centres unmarked),-30.2%

# Source: publication PMC4336329 (PLoS ONE, 2015)
